# Test results as given in the supplement of paper PMC3334620.
# The full ranking holds about 33,000 sequences; the median of “E-score (-0.5 to 0.5)” is about -0.01, and the highest 2% start at about 0.26. The list shows a part of the results.
# Molecular target: Ste12 (UniProt P13574)
# Assay: PBM E-score (8-mer binding enrichment) (E-score (-0.5 to 0.5)); higher = stronger / more preferred TF binding; most listed sequences are background and not binding sites
# Conditions: protein concentration: 200 nM; construct: GST-DNA-binding domain
# Method in brief: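 Using PURExpress in vitro transcription/translation, GST-tagged yeast transcription factors were made in full-length or DNA-binding-domain form. These were applied at about 100-200 nM to double-stranded universal all-10-mer Agilent arrays, and bound protein was detected with fluorescent anti-GST. Scans were normalised with masliner before the Universal PBM Analysis Suite assigned E-scores to ungapped eight-base words pooled with their reverse complements.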
row,Sequence,PBM E-score
1,GAAGCGTC,-0.14
2,GAACGGGC,-0.104
3,CCTCCTCG,-0.23
4,CAGGTACC,-0.153
5,TCTCCGCA,-0.0817
6,CACGCAGA,-0.229
7,TATGGGAA,0.0435
8,AAAAACGA,0.272
9,ACTACAAC,0.0873
10,CACATGGG,-0.076
11,AGCATCCC,-0.217
12,AGACCGAT,-0.0063
13,GTTGGGGA,-0.0474
14,AGTGGGTA,-0.167
15,CCAAGCGA,-0.152
16,AAGCGCGG,-0.0766
17,ATGAGGAA,0.141
18,CATGCGGC,-0.0784
19,ATAGCAAA,0.0867
20,GTATGAGA,-0.0324
21,GCAAGCCC,0.0457
22,ATACTGCG,-0.11
23,AGTCACAA,-0.0023
24,CATGGTCC,-0.109
25,CAAGTTGG,0.019

row,Sequence,PBM E-score
1,ATCCCATA,-0.0374
2,CCCGACAC,0.0126
3,AACCAGCA,0.104
4,CTAGAGCC,-0.276
5,CCACAACC,0.111
6,AAGAGAGT,-0.159
7,CGGAAAAG,0.0439
8,AACCTTTC,-0.107
9,ATTGTCGG,0.15
10,GCGTGAGA,-0.0103
11,ATTTTTGC,0.236
12,GACCGCGA,-0.0908
13,CCACTCAC,0.00731
14,CATCCTGC,0.00487
15,GCGATTAC,-0.187
16,CAAGATAG,-0.0407
17,GGTACAGA,0.0601
18,CCTTAATA,0.148
19,GATGCATA,0.0252
20,ACTGGTGA,-0.323
21,CCCCCCCA,-0.133
22,CACTCTCC,-0.0276
23,GCTAGAAA,0.183
24,GAATGTCA,-0.00591
25,CTCACACA,0.0382

row,Sequence,PBM E-score
1,CCAGACCA,0.0148
2,AGAATTAC,0.0585
3,ACGCTAGC,-0.23
4,ATGGGAGC,-0.0972
5,TAGCCATA,-0.0521
6,CAACTGGA,-0.0914
7,GATGCGCC,-0.0658
8,AAGAATTG,-0.0081
9,GACACACC,0.0782
10,TGAGCCAA,0.0621
11,CTATGCAC,-0.0852
12,ATGGGTCA,-0.0892
13,ACAAATTA,0.263
14,ATCTCCCC,-0.0162
15,AGTGCATA,-0.143
16,ACTACGCA,-0.118
17,CAGAGAGC,-0.0939
18,AACGGGCC,-0.0977
19,CAACCATC,0.109
20,GGTTCGAC,-0.0189
21,CGTTCTCA,0.0637
22,CCCTTAGA,-0.0808
23,TGACACAA,0.199
24,AATGTGTC,0.131
25,CCATCCCA,-0.0961

row,Sequence,PBM E-score
1,GCCGCCCC,0.307
2,ATCGGCAA,-0.00833
3,ACTGCAGC,-0.0252
4,ACCGCCAC,-0.0369
5,AAGGAATT,0.0259
6,TGTCGACA,-0.0855
7,AGGTGAAG,-0.00052
8,GTACATAA,-0.0371
9,ACAGATTC,0.0802
10,GCACCGCA,-0.0352
11,AAAGAGTC,-0.165
12,AAGTGTCT,-0.0707
13,ATTTACAG,0.016
14,CATGATCA,0.0535
15,TAAGAGTA,0.0931
16,CCAGAGGC,-0.019
17,CTGCATTA,-0.193
18,GGACTGGA,-0.249
19,AGGCTATA,0.0193
20,ACCTGGGG,-0.191
21,CCGCTTAA,0.0545
22,CGACGCCC,0.0897
23,AGACGCCA,-0.0342
24,GCGATCCA,-0.0928
25,TACCTTCA,0.101

row,Sequence,PBM E-score
1,CCAGCCAG,-0.138
2,AGATATTA,0.064
3,AAACTCGG,5e-05
4,ACCTCCTG,-0.161
5,ACCCTGGG,-0.0447
6,CATCAGCC,-0.0864
7,GATCAAGA,-0.0068
8,AATGAAAC,0.44
9,AACGCGGG,0.118
10,CACCGAGG,-0.121
11,CCGCGCGC,0.24
12,AACCGTGG,-0.0665
13,ACCCAGTA,-0.0623
14,GTGGAGTA,-0.0195
15,ACGTCTCG,-0.0712
16,CATTAATA,0.251
17,AATAGAGA,0.0494
18,GCATAGAA,0.0371
19,CAAGCGAG,0.14
20,CATCCCCA,0.0232
21,ACGAACGG,0.101
22,AAGCAGCT,-0.0502
23,AGAGTCCC,-0.213
24,ATGTGCAC,-0.037
25,GGTAGACA,0.00514

row,Sequence,PBM E-score
1,ATCTCTTA,0.197
2,CTGCTGCC,-0.0246
3,CGGATAAA,0.149
4,CCCGACTA,0.0472
5,TATTGGAA,-0.00217
6,ACTTTACA,0.241
7,AGGCTCGG,-0.112
8,ATTGCCGG,-0.0557
9,CAGCGCAC,-0.118
10,CGCTCTAC,-0.1
11,AGAAACCG,0.182
12,GTCTGATA,0.16
13,GCAGGGGC,-0.0825
14,ATGCGGCA,0.123
15,CTCGACGA,-0.139
16,CCTGCTCG,-0.19
17,CTCAGGGA,-0.176
18,GCCAATCC,0.0945
19,GATCGCTA,-0.0576
20,GCACTGGA,-0.307
21,AAAGTAGA,0.0854
22,CTAAGGGC,-0.0565
23,GCAATTTA,0.172
24,AGAGTGCC,-0.228
25,CGGCGGAG,0.111

row,Sequence,PBM E-score
1,ATAATCAA,0.151
2,CCATCCGA,0.127
3,ATTTGACA,0.141
4,TATGATAA,0.131
5,AAACGCAT,0.0934
6,TCGGGAAA,0.175
7,GTCTAATA,-0.00905
8,AGTCCCTA,-0.137
9,GGGTCAAA,0.0841
10,ATGCGCAG,-0.0835
11,ATAGGATA,0.0716
12,GTTTCCAA,0.218
13,CTAACAAC,-0.00345
14,AACTTACC,0.0612
15,GACTAAAA,0.254
16,ACGTATAG,-0.0188
17,CGACCGCC,0.0385
18,TAAAATCA,0.112
19,CACGGAGA,-0.0746
20,AACATGTT,0.135
21,CGGGCACA,0.00379
22,GCCGATAA,-0.12
